Here are results for 87 compounds from article PMC4336329 (PLoS ONE, 2015).

Screen size: about 310,000 compounds; about 2,200 (0.71%) showed an effect of 50% or more. The effect is printed as a negative number. Some of the results follow.

In the experiment the target is human ether-à-go-go-related gene (hERG) potassium channel (human, UniProt Q12809). The experiment can be described thus: primary screen, population patch clamp on CHO cells stably expressing hERG.
human ether-à-go-go-related gene (hERG) potassium channel, sequence (Q12809 whole entry, looked up): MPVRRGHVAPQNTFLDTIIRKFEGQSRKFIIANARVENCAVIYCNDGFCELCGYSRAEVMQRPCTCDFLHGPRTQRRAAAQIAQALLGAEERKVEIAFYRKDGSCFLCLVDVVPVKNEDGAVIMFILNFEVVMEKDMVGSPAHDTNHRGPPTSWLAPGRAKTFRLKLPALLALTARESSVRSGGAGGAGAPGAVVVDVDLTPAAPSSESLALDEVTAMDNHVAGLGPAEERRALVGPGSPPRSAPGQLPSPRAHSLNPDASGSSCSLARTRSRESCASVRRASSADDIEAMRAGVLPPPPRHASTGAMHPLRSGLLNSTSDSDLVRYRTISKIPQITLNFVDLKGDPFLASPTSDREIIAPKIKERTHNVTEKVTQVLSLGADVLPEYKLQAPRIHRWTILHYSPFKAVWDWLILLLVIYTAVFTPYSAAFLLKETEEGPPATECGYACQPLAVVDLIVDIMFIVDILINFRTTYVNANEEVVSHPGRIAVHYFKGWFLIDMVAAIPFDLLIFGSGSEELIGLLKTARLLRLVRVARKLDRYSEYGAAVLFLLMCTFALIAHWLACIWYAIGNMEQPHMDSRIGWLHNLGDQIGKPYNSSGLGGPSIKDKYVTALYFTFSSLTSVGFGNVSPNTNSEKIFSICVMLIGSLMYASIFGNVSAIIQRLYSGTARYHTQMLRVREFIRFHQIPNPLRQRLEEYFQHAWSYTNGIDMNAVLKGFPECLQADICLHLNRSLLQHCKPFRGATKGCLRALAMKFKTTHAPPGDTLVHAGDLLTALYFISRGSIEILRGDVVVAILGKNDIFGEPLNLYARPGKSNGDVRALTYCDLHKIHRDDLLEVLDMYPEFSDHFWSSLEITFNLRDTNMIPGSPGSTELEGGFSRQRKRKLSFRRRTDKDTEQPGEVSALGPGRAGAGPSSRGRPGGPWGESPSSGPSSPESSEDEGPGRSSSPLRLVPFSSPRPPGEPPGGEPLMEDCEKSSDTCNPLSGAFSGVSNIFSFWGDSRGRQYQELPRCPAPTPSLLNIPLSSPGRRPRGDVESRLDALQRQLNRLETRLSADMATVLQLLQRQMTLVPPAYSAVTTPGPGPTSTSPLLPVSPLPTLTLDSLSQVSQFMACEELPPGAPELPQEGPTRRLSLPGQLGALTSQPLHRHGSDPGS
With `CCN(CC)c1ccc(/C=N/N2CC(=O)NC2=S)cc1`, the “hERG current change (%, negative = inhibition) at 1uM” value was determined as 12.8%. In the case of `Clc1ccc(CCNc2nc3ccccc3n3nnnc23)cc1`, the “hERG current change (%, negative = inhibition) at 1uM” value is recorded as -7.21%. For the compound `Cl.O=C(O)c1ccc(Nc2c3ccccc3nc3ccccc23)cc1`, the “hERG current change (%, negative = inhibition) at 1uM” value was found to be 10.9%. The value for `C/C=C1/C[N+]2(C)CCC34C(=C(C=O)[C@H]1C[C@@H]32)Nc1ccccc14.[Cl-]` (stereo partly drawn) was 12.4%. For the compound `CCOc1ccccc1NC(=O)CCN(c1ccc(C)cc1)S(=O)(=O)c1ccccc1`, the “hERG current change (%, negative = inhibition) at 1uM” value is on record as 6.15%. As to `Cc1cccc(/C=N/n2c(COc3ccccc3)n[nH]c2=S)c1`, the “hERG current change (%, negative = inhibition) at 1uM” value is 14.9%.

`O=C(CN1C(=O)S/C(=C\c2ccc(F)cc2)C1=O)Nc1cccc(S(=O)(=O)NCc2ccco2)c1`: the “hERG current change (%, negative = inhibition) at 1uM” value is recorded as 3.98%.

Regarding `O=C(O)c1cccc2c1NC(C(=O)O)C1CC(Sc3ccccc3[N+](=O)[O-])C(Cl)C21` (stereo not drawn), the “hERG current change (%, negative = inhibition) at 1uM” value is on record as 10.4%.

Regarding `CCN1CCN(C(=O)c2cc3c(=O)n4ccccc4nc3s2)CC1`, the “hERG current change (%, negative = inhibition) at 1uM” value was determined as 8.05%.

Turning to `CCCOc1ccc(/C=c2\sc3nc(-c4ccco4)nn3c2=O)cc1OCC`, the “hERG current change (%, negative = inhibition) at 1uM” value was found to be 5.32%.

Consider `CCOc1ccc(N=C2NN=C(c3cc(C)n(CC4CCCO4)c3C)CS2)cc1` (stereo not drawn), for which the “hERG current change (%, negative = inhibition) at 1uM” value was found to be 10.8%.

For `CN(Cc1ccc(-n2cccn2)cc1)Cc1cn(C)nc1-c1ccccc1F`, the “hERG current change (%, negative = inhibition) at 1uM” value is given as -63.5%. Take `CCOc1ccc(N(CC(=O)NCc2ccco2)S(=O)(=O)c2ccc(OC)c(OC)c2)cc1`: the “hERG current change (%, negative = inhibition) at 1uM” value turned out to be 6.77%. `COC(=O)C1CC(=O)N(c2ccc(C)cc2)C1` (stereo not drawn): the “hERG current change (%, negative = inhibition) at 1uM” value is 4.3%. For the compound `O=P(O)(CCc1ccccc1)C(O)c1ccccc1` (stereo not drawn), the “hERG current change (%, negative = inhibition) at 1uM” value was 5.09%. Turning to `Cc1cc2c(=O)n(Cc3ccco3)c(SCC(=O)c3ccc(Cl)s3)nc2s1`, the “hERG current change (%, negative = inhibition) at 1uM” value was 4.71%. For the compound `CCC(=O)Nc1ccc(S(=O)(=O)N2CCc3ccccc3C2)cc1`, the “hERG current change (%, negative = inhibition) at 1uM” value stood at 5.47%.

With `Cc1ccc(N2C(=O)CC(N3CCN(C4CCc5ccccc5C4)CC3)C2=O)cc1` (stereo not drawn), the “hERG current change (%, negative = inhibition) at 1uM” value is on record as -59%. With `CN(C)S(=O)(=O)c1ccc2c(c1)Cc1cc(S(=O)(=O)N(C)C)ccc1-2`, the “hERG current change (%, negative = inhibition) at 1uM” value was 10.2%. On to `CO[C@H]1O[C@@H]2O[C@@]3(C)CC[C@H]4[C@H](C)CC[C@@H]([C@H]1C)[C@@]24OO3`, for which the “hERG current change (%, negative = inhibition) at 1uM” value is 20.2%.

Take `O=C1N(CCCl)c2ccc(Br)cc2C12OCCO2`: the “hERG current change (%, negative = inhibition) at 1uM” value was 16.7%. On to `Cc1ccc(S(=O)(=O)N(C)/N=C/c2ccc(N(C)C)cc2)cc1`, for which the “hERG current change (%, negative = inhibition) at 1uM” value was 6.26%. As for `CCOc1ccc(CCNC(=O)c2ccc(OCc3c(C)noc3C)cc2)cc1OCC`, the “hERG current change (%, negative = inhibition) at 1uM” value turned out to be 14%. For `COc1ccc(/C=C/c2c([N+](=O)[O-])c(=O)n(C)c(=O)n2C)cc1OC`, the “hERG current change (%, negative = inhibition) at 1uM” value is 5.36%. The value for `CCOC(=O)C1CCN(C(=O)Cn2nc(C)n3c(cc4cc(C)ccc43)c2=O)CC1` was 4.86%; that for `O=C(Nc1nccs1)c1ccc(Br)s1` was 13.4%; that for `Cc1ccc(Cn2nnnc2CN2CCC(O)(c3ccccc3F)CC2)cc1` was -2.96%.

`CCOc1ccc(C2C3=C(CC(C)(C)CC3=O)N(CC(=O)O)C3=C2C(=O)CC(C)(C)C3)cc1OCC`: the “hERG current change (%, negative = inhibition) at 1uM” value was 5.01%.

Turning to `COCCn1c(=NC(=O)CCS(=O)(=O)c2ccccc2)sc2ccccc21`, the “hERG current change (%, negative = inhibition) at 1uM” value was 3.57%. The value for `CCN(Cc1ccccc1)S(=O)(=O)c1ccc(S(=O)(=O)N2CCN(C)CC2)cc1` was 12.8%; that for `CCCSc1nnc2n(-c3ccccc3OC)c(=O)c3c4c(sc3n12)CCC4` was -6.18%. On to `Cc1nc2ccc(NS(=O)(=O)c3ccc(C)c(C)c3)cc2s1`, for which the “hERG current change (%, negative = inhibition) at 1uM” value is on record as 10.6%. On to `CN(C)c1ccc(-c2nnn(CC(=O)Nc3ccc4c(c3)OCCO4)n2)cc1`, for which the “hERG current change (%, negative = inhibition) at 1uM” value is reported as 23.8%. As for `Nc1nonc1NN=C1CCCCC1`, the “hERG current change (%, negative = inhibition) at 1uM” value amounted to 14.6%. The value for `CC(C)CC1(C(=O)NCc2ccccn2)C=CCN1C(=O)c1ccccc1` (stereo not drawn) was 11.3%. For `FC(F)(F)c1nc2ccccc2n2c(-c3ccc(Cl)cc3Cl)nnc12`, the “hERG current change (%, negative = inhibition) at 1uM” value is 20.4%. The value for `O=C(CCc1nc2ccccc2c(=O)[nH]1)Nc1nc(-c2cccs2)cs1` was 2.05%. For `C/C(N)=C(/C#N)C(=O)COC(=O)C1CCN(C(=O)c2ccc(Cl)cc2)CC1`, the “hERG current change (%, negative = inhibition) at 1uM” value came out at 6.14%. For `Cn1c(=O)c2c(nc(NCc3cccnc3)n2Cc2cccc(C(F)(F)F)c2)n(C)c1=O`, the “hERG current change (%, negative = inhibition) at 1uM” value is given as 6.35%.

As for `CCOc1ccc2[nH]cc(C(=O)NCCCN3CCOCC3)c(=O)c2c1`, the “hERG current change (%, negative = inhibition) at 1uM” value turned out to be 5.98%. Take `O=[N+]([O-])c1ccc(N2CCN(CCOc3nonc3-c3ccccc3)CC2)c(Cl)c1`: the “hERG current change (%, negative = inhibition) at 1uM” value was 8.86%. The value for `Cc1ccc(C(=O)NC(C)c2ccc(-n3ccnc3)cc2)c(C)c1` (stereo not drawn) was -18.4%; that for `CCCCNC(=O)C(=O)N/N=C/c1cccc(Br)c1` was 3.29%. For `COc1ccc(C(=O)NCc2nnc(SCC(=O)Nc3cc(C)on3)o2)cc1OC`, the “hERG current change (%, negative = inhibition) at 1uM” value was found to be 5.06%. The value for `O=C(COc1ccccc1Cl)Nc1ccc(C(=O)N2CCCCC2)cc1` was -3.76%; that for `N#CCCn1ncc2ccccc21` was 14%; that for `CC(C)(C)Nc1nc2nonc2nc1NC(C)(C)C` was 12.2%. On to `CCOC(=O)c1c(-c2ccccc2)oc2ccc(OCC)cc12`, for which the “hERG current change (%, negative = inhibition) at 1uM” value stood at 10.8%. Turning to `O=C(CC1C(=O)NCCN1CC(c1ccccc1)c1ccccc1)NC1CC1` (stereo not drawn), the “hERG current change (%, negative = inhibition) at 1uM” value was determined as 29.1%. As for `COc1ccccc1C(=O)NCCC(=O)Nc1cccc(C)n1`, the “hERG current change (%, negative = inhibition) at 1uM” value was 10.9%. In the case of `CSc1ccc(/C=C/C(=O)OCC(=O)c2ccc[nH]2)cc1`, the “hERG current change (%, negative = inhibition) at 1uM” value worked out at 8.26%. The value for `O=C(CCCCCN1C(=O)c2ccccc2C1=O)Nc1ccccc1` was 5.83%; that for `Oc1c(C(c2ccccn2)N2CCOCC2)ccc2cccnc12` (stereo not drawn) was 20.1%. Take `CN(Cc1cccnc1)C(=O)CC1C(=O)NCCN1Cc1ccc(-c2ccccc2)cc1` (stereo not drawn): the “hERG current change (%, negative = inhibition) at 1uM” value came to 2.2%. For `COc1cc(OC)c(-c2nc3c[n+](CC(=O)c4ccccc4)ccc3n2C)cc1OC.[Br-]`, the “hERG current change (%, negative = inhibition) at 1uM” value turned out to be 12%. The value for `Oc1ccccc1-c1nc(NCCN2CCOCC2)c2ccccc2n1` was 13%. As for `CCN(CC)c1nc(-c2nn[nH]n2)nc(N(CC)CC)n1`, the “hERG current change (%, negative = inhibition) at 1uM” value is reported as 15%. For the compound `COc1cccc(NC(=O)N2C3CCCC2CC(NC(=O)C2CC2)C3)c1` (stereo not drawn), the “hERG current change (%, negative = inhibition) at 1uM” value is on record as 12%.

`CC1Cn2c(nc(=O)c3c2NCN(CCc2ccccc2)C3)S1` (stereo not drawn): the “hERG current change (%, negative = inhibition) at 1uM” value came out at 12.1%. Regarding `CC(C)Oc1ccc(S(=O)(=O)N2CCCCC2)cc1NC(=O)C1CSC2(C)CCC(=O)N12` (stereo not drawn), the “hERG current change (%, negative = inhibition) at 1uM” value turned out to be 15.1%.

For the compound `O=C(NCCC1CCCCN1S(=O)(=O)c1ccccc1)C(=O)NCc1ccccc1` (stereo not drawn), the “hERG current change (%, negative = inhibition) at 1uM” value was found to be 1.97%. In the case of `COc1cc2c(C(=O)N3CCCc4ccccc43)cn(C)c(=O)c2cc1OC`, the “hERG current change (%, negative = inhibition) at 1uM” value is recorded as 7.48%.

Take `Cc1cc(=O)n2c3c(cccc13)CCC2`: the “hERG current change (%, negative = inhibition) at 1uM” value is recorded as 1.5%.

With `COCCCNC(=O)c1cc(=O)n(Cc2ccc(Cl)cc2)c2ccccc12`, the “hERG current change (%, negative = inhibition) at 1uM” value was determined as 3.45%. Take `O=C(O)C1CC(=O)N(Cc2ccc3c(c2)OCO3)C1` (stereo not drawn): the “hERG current change (%, negative = inhibition) at 1uM” value is 6.73%. Regarding `CN(C)c1cc(Nc2ccc(O)cc2)c([N+](=O)[O-])c2nonc12`, the “hERG current change (%, negative = inhibition) at 1uM” value is given as 3.47%. On to `CCOCCCNC(=O)Cc1ccc(-n2c(CC)nc3cccnc32)cc1`, for which the “hERG current change (%, negative = inhibition) at 1uM” value came to 2%. As for `CCN(c1ccc(F)cc1)S(=O)(=O)c1ccc2[nH]cc(C(=O)NCCCN3CCOCC3)c(=O)c2c1`, the “hERG current change (%, negative = inhibition) at 1uM” value was 7.75%.

For the compound `CC(C)Sc1nc2ccccc2c(=O)[nH]1`, the “hERG current change (%, negative = inhibition) at 1uM” value stood at 2.04%. Consider `O=C1CCC/C(=N/Nc2ccc(Cl)cc2)C1`, for which the “hERG current change (%, negative = inhibition) at 1uM” value is listed as 9.45%. On to `Cc1cc(NC(=O)CSc2ccc(-c3ccc4c(c3)OCO4)nn2)no1`, for which the “hERG current change (%, negative = inhibition) at 1uM” value is given as 18.3%. For `CCOC(=O)Cn1c(=NC(=O)C2CC2)sc2c(C)cc(C)cc21`, the “hERG current change (%, negative = inhibition) at 1uM” value is reported as 14.3%. The value for `O=C(OCC#Cc1c(COC(=O)c2ccccc2)nnn1Cc1ccccc1)c1ccccc1` was 3.27%. In the case of `COc1ccc(S(=O)(=O)Nc2nc3ccccc3nc2NCC2CCCO2)cc1` (stereo not drawn), the “hERG current change (%, negative = inhibition) at 1uM” value is given as 14.1%. Take `Cc1cnc(NS(=O)(=O)c2ccccc2)c(C)n1`: the “hERG current change (%, negative = inhibition) at 1uM” value was 14.7%. The value for `CCCCNS(=O)(=O)NC(=O)C1=C(N2CCCC2)COC1=O` was 8.9%; that for `Cc1c(N2C(=O)CSC2c2ccc([N+](=O)[O-])cc2)c(=O)n(-c2ccccc2)n1C` (stereo not drawn) was 9.13%; that for `Cc1ccc2nc(-c3ccc(NC(=O)CSc4ccccc4)cc3)[nH]c2c1` was 15%.

Consider `Cc1cc(C)nc(SCc2ccc(C(=O)NNC(=O)Nc3cccc(Cl)c3)cc2)n1`, for which the “hERG current change (%, negative = inhibition) at 1uM” value came out at 11.9%. The value for `CC(=C/c1ccc(C(C)C)cc1)/C=N/NC(=O)CSc1ccccn1` was 4.79%; that for `O=C(NC1CCc2ccccc21)c1cc(COc2cncc(Cl)c2)on1` (stereo not drawn) was 9.93%. Consider `CC1=NN(c2ccccc2)C(=O)C1(C)[N+](=O)[O-]` (stereo not drawn), for which the “hERG current change (%, negative = inhibition) at 1uM” value is 14.6%. The value for `CC1(C)CC(=O)C(C=NCCN2CCN(CC(=O)Nc3ccc(Cl)cc3)CC2)=C(O)C1` was 2.52%; that for `COc1ccc(/C=C(/C#N)c2cccnc2)cc1OC` was 12.8%; that for `COC(=O)c1cc(NS(=O)(=O)c2ccc(N3CCCCC3)c([N+](=O)[O-])c2)cc(C(=O)OC)c1` was 3.15%. For `Cc1ccc(C(=O)C[n+]2ccc(Cc3ccccc3)cc2)cc1.[Cl-]`, the “hERG current change (%, negative = inhibition) at 1uM” value was -24.7%.

Take `Cn1c(=O)[nH]c(=O)c2c1nc(N1CCOCC1)n2CC(O)COc1ccc2ccccc2c1` (stereo not drawn): the “hERG current change (%, negative = inhibition) at 1uM” value is reported as -5.43%.
